Measured values reported in PubChem BioAssay AID686971 (National Center for Advancing Translational Sciences (NCATS), 2013).
About 7,500 (2.1%) of roughly 360,000 compounds were called active. This list was built around the results that the source calls inconclusive (neither active nor inactive); the mix of calls is not that of the screen. Calls come from the whole dose curve; as a rule, active = well fitted cell-killing curve with a large enough effect; inconclusive = small, poorly fitted or top-dose-only effect, or effect the other way, or another doubt; inactive = no such curve, though single readings can be large or run the other way. Potencies of inconclusive entries are left out as doubtful fits.

Assay: qHTS for induction of synthetic lethality in tumor cells producing 2HG: qHTS for the HT-1080-IDH1KD cell line;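 for activity, negative = toxicity: 0% = DMSO wells and -100% = cell-free medium wells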
Details: HT-1080 IDH1 knockdown viability, ATP luminescence, 48 h; activity, negative = toxicity: at 46.1 µM (top of the series) unless noted
In short: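 Luminescent ATP read-out (CellTiter-Glo, 10 min at room temperature) after 48 h compound exposure at 37 °C gave viability of IDH1-knockdown HT-1080 cells. Activity was normalised to DMSO and cell-free wells, then fitted as concentration-response curves.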
Potency is the fitted concentration of half-maximal effect; tags give direction and shape of the fitted curve.

Q: With `COc1ccc(NC(=O)CSc2nc(NS(=O)(=O)c3ccc(C)cc3)cc(=O)[nH]2)cc1` as the compound, how does the Potency read?
A: The Potency was inconclusive [cytotoxic, single point].

Q: Which Potency does the source give for `CCN(CC)S(=O)(=O)c1ccc(N2CCN(c3ccccc3OC)CC2)c(N)c1` here?
A: The Potency was inconclusive [cytotoxic, partial curve].

Q: With `O=S(=O)(c1ccc(Cl)cc1)N1CCC(c2nc3ccccc3[nH]2)CC1` as the compound, how does the Potency read?
A: Its Potency is inconclusive [cytotoxic, single point].

Q: For `COC(=O)[C@@]12C[C@@H](CC(=O)NCCc3ccccc3OC)C(=O)N(Cc3ccccc3)C1=CCC(C)(C)C2`, which Potency is on record?
A: Its Potency is inconclusive [cytotoxic, single point].

Q: Which Potency does the source give for `COc1ccc(CNC(=O)/C(C#N)=C/c2cccc(OC)c2OC)cc1` here?
A: Its Potency is active: 25.9 µM.

Q: For `Cc1nc2ccccc2n1Cc1ccc(Br)cc1`, which Potency is on record?
A: The Potency was inconclusive [cytotoxic, full curve].

Q: For `N#Cc1c(-c2ccccc2)c(-c2ccccc2)nn(CC(=O)NNC(=O)Nc2ccc(Cl)c(Cl)c2)c1=O`, which Potency is on record?
A: Its Potency is active: 14.6 µM.

Q: Which Potency does the source give for `CC(=O)N1CCN(C(=S)NC(=O)c2c(-c3ccccc3Cl)noc2C)CC1` here?
A: The Potency was inconclusive [rising, single point].

Q: For `CCCn1c(NCc2cc(C)ccc2O)nc2ccccc21`, which Potency is on record?
A: The Potency was inconclusive [cytotoxic, single point].

Q: Which “activity, negative = toxicity” value does the source give for `CCCCNc1c(CC(C)C)nc2nc(C)cc(C)n12` here?
A: The value was inactive: 4.55%.

Q: For `O=C1CC[C@@H](CN(Cc2ccccc2)Cc2cn[nH]c2-c2cc3ccccc3o2)N1`, which Potency is on record?
A: The Potency was inconclusive [cytotoxic, partial curve].

Q: With `C[C@H](CO)N1C[C@H](C)[C@@H](CN(C)Cc2ccc(-c3ccccc3)cc2)Oc2c(NS(=O)(=O)c3cn(C)cn3)cccc2C1=O` as the compound, how does the “activity, negative = toxicity” value read?
A: Its value is inactive: 4.74%.

Q: With `Cc1noc(C)c1COc1cccc(C(=O)Nc2ccc(Br)cc2F)c1` as the compound, how does the Potency read?
A: The Potency was inconclusive [cytotoxic, single point].

Q: With `CCOC(=O)/C(C#N)=C1/C(=O)N(Cc2ccccc2)c2ccccc21` as the compound, how does the “activity, negative = toxicity” value read?
A: The value was inactive: -13.8%.

Q: Which “activity, negative = toxicity” value does the source give for `CN(C)C(CNc1ncccn1)c1ccccc1` (stereo not drawn) here?
A: The value was inactive: 19.1%.

Q: With `N#CC1=C(N)N(c2ccccc2)C2=C(C(=O)CCC2)C1c1ccsc1` (stereo not drawn) as the compound, how does the Potency read?
A: The Potency was inconclusive [cytotoxic, single point].

Q: Which “activity, negative = toxicity” value does the source give for `COc1ccc(NC(=O)CSc2nccn2Cc2ccco2)cc1` here?
A: Its value is inactive: -10.6%.

Q: For `O=C(CC[C@H]1O[C@@H](n2ccc(=O)[nH]c2=O)[C@H](O)[C@@H]1O)N[C@H](Cc1ccccc1)C(=O)NC1CCCCC1`, which “activity, negative = toxicity” value is on record?
A: The value was inactive: 5.51%.

Q: For `O=C(O)CC(NC(=S)NCc1ccccc1)C(=O)O` (stereo not drawn), which Potency is on record?
A: The Potency was inconclusive [cytotoxic, single point].

Q: Which Potency does the source give for `OC(COCCC12CC3CC(CC(C3)C1)C2)CN1CCCCC1` (stereo not drawn) here?
A: The Potency was inconclusive [cytotoxic, single point].

Q: For `COc1ccc(NC(=O)c2cc3c(=O)n4ccccc4nc3n2C)c(OC)c1`, which “activity, negative = toxicity” value is on record?
A: The value was inactive: 17.2%.

Q: Which Potency does the source give for `COc1ccc2c(c1)c1nc3ccccc3nc1n2Cc1ccc(OC)c(OC)c1` here?
A: Its Potency is inconclusive [cytotoxic, partial curve].

Q: Which Potency does the source give for `O=C(/C=C/c1ccccc1)NNc1ccc(Cl)cc1` here?
A: Its Potency is inconclusive [cytotoxic, single point].

Q: For `CC1=CC(C)(C)N(S(=O)(=O)c2ccc(F)cc2)c2ccccc21`, which Potency is on record?
A: The Potency was inconclusive [cytotoxic, partial curve].

Q: Which Potency does the source give for `O=c1[nH]c(C2CCN(S(=O)(=O)c3cccc(Cl)c3)CC2)nc2c1nnn2Cc1ccccc1` here?
A: Its Potency is inconclusive [cytotoxic, partial curve].

Q: With `FC(F)(F)c1cccc(Oc2cc(C(F)(F)F)nc(-c3ccccn3)n2)c1` as the compound, how does the Potency read?
A: Its Potency is inconclusive [rising, partial curve].

Q: Which Potency does the source give for `CC(C)CCn1c(Oc2ccccc2Cl)nc2c1c(=O)n(C)c(=O)n2C` here?
A: Its Potency is inconclusive [cytotoxic, single point].

Q: For `O=C1S/C(=C\c2ccc(N3CCOCC3)o2)C(=O)N1c1ccccc1`, which Potency is on record?
A: Its Potency is inconclusive [cytotoxic, single point].

Q: With `CSc1nc(N(C)NC(=O)c2cccc(C)c2)c2ccccc2n1` as the compound, how does the Potency read?
A: Its Potency is active: 0.0461 µM.

Q: For `CCCCCc1c(-c2ccccc2)ncn1CCc1ccccc1OC`, which Potency is on record?
A: The Potency was inconclusive [cytotoxic, single point].

Q: With `CCC1(C)Cc2ccccc2-c2nc(NCCCO)n(C)c(=O)c21` (stereo not drawn) as the compound, how does the “activity, negative = toxicity” value read?
A: Its value is inactive: 2.56%.

Q: Which Potency does the source give for `COc1ccc(-c2ccc(CN3C(CC(C)C)C(=O)N(Cc4cn(CC5CCCCC5)nn4)CCS3(=O)=O)cc2)cn1` (stereo not drawn) here?
A: The Potency was inconclusive [cytotoxic, single point].

Q: For `CC(C)OCCCNC(=O)c1ccc2c(c1)NC(=O)c1ccccc1S2`, which Potency is on record?
A: Its Potency is inconclusive [cytotoxic, single point].

Q: For `C=CCN(C(=O)CSc1nc2ccsc2c(=O)n1Cc1ccc(C(=O)O)cc1)c1ccccc1`, which “activity, negative = toxicity” value is on record?
A: Its value is inactive: -5.97%.

Q: With `COc1cc(CNC(=O)Nc2nc(C(N)CCc3ccccc3)cs2)cc(OC)c1OC` (stereo not drawn) as the compound, how does the Potency read?
A: The Potency was inconclusive [cytotoxic, single point].

Q: With `Cc1cc2c(N=O)c(NO)ccc2[nH]1` as the compound, how does the Potency read?
A: The Potency was inconclusive [cytotoxic, partial curve].

Q: For `CCOc1ccc(Nc2oc(-c3ccc(Cl)cc3)nc2C#N)cc1`, which Potency is on record?
A: Its Potency is inconclusive [cytotoxic, single point].

Q: Which Potency does the source give for `NS(=O)(=O)c1ccc(N/N=C/c2cn(-c3ccccc3)nc2-c2cccs2)c([N+](=O)[O-])c1` here?
A: The Potency was active: 7.31 µM.

Q: With `O=C(CCC(=O)N1CCOc2ccc(Cl)cc21)NCCCN1CCN(c2ccccc2F)CC1` as the compound, how does the Potency read?
A: Its Potency is inconclusive [cytotoxic, single point].

Q: With `Cc1c2c(cc3c1[nH]c1ccccc13)C=NCC2` as the compound, how does the Potency read?
A: Its Potency is inconclusive [cytotoxic, single point].

Q: For `CC(C)OCCCn1c(SCC(=O)N2CCc3ccccc32)nc2ccccc2c1=O`, which activity, negative = toxicity is on record?
A: The activity, negative = toxicity was inconclusive: -31.3% [cytotoxic].

Q: With `CCOC(=O)C(C)Oc1cccc2c(=O)n(CC(=O)NCc3ccccc3)ccc12` (stereo not drawn) as the compound, how does the Potency read?
A: The Potency was active: 0.517 µM.

Q: Which Potency does the source give for `CC1=Nc2cc(C(=O)NCC3CCCO3)ccc2Sc2ccc(Br)cc21` (stereo not drawn) here?
A: Its Potency is active: 16.4 µM.
